Results: the supplement of paper PMC8728848
The list shows a part of the results.

Columns and labels:
Assay in all cases: glycan array binding signal (z-score within array); higher = stronger binding
Settings in all cases: glycan notation: IUPAC condensed, linker removed
[1] = target: Gal(b1-4)GlcNAc(b1-2)Man(a1-3)[Man(a1-6)]Man(b1-4)GlcNAc(b1-4)GlcNAc
Summary of the method: (§1)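 The binding signal is a Z-score computed within each array and averaged over linkers. Arrays of the same protein sequence at different concentrations or buffers were also averaged together. Data originate from 3228 arrays in the Consortium for Functional Glycomics database, kept only where the protein sequence was available.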

[2] = target: Gal(b1-4)GlcNAc(b1-2)Man(a1-6)Man(b1-4)GlcNAc(b1-4)GlcNAc
Summary of the method: as §1

[3] = target: Gal(b1-4)GlcNAc(b1-2)Man(a1-6)[GlcNAc(b1-2)Man(a1-3)]Man(b1-4)GlcNAc(b1-4)GlcNAc
Summary of the method: as §1

[4] = target: Gal(b1-4)GlcNAc(b1-2)Man(a1-6)[Man(a1-3)]Man(b1-4)GlcNAc(b1-4)GlcNAc
Summary of the method: as §1

[5] = target: Gal(b1-4)GlcNAc(b1-2)[Gal(b1-4)GlcNAc(b1-4)]Man(a1-3)[Gal(b1-4)GlcNAc(b1-2)Man(a1-6)]Man(b1-4)GlcNAc(b1-4)GlcNAc
Summary of the method: as §1

[6] = target: Gal(b1-4)GlcNAc(b1-2)[Gal(b1-4)GlcNAc(b1-4)]Man(a1-3)[Gal(b1-4)GlcNAc(b1-2)[Gal(b1-4)GlcNAc(b1-6)]Man(a1-6)]Man(b1-4)GlcNAc(b1-4)GlcNAc
Summary of the method: as §1

[7] = target: Gal(b1-4)GlcNAc(b1-2)[Gal(b1-4)GlcNAc(b1-4)]Man(a1-3)[GlcNAc(b1-4)][Gal(b1-4)GlcNAc(b1-2)Man(a1-6)]Man(b1-4)GlcNAc(b1-4)GlcNAc
Summary of the method: as §1

[8] = target: Gal(b1-4)GlcNAc(b1-2)[Gal(b1-4)GlcNAc(b1-4)]Man(a1-3)[GlcNAc(b1-4)][Gal(b1-4)GlcNAc(b1-2)[Gal(b1-4)GlcNAc(b1-6)]Man(a1-6)]Man(b1-4)GlcNAc(b1-4)GlcNAc
Summary of the method: as §1

[9] = target: Gal(b1-4)GlcNAc(b1-2)[Gal(b1-4)GlcNAc(b1-4)]Man(a1-3)[GlcNAc(b1-4)][Gal(b1-4)GlcNAc(b1-2)[Gal(b1-4)GlcNAc(b1-6)]Man(a1-6)]Man(b1-4)GlcNAc(b1-4)[Fuc(a1-6)]GlcNAc
Summary of the method: as §1

[10] = target: Gal(b1-4)GlcNAc(b1-2)[Gal(b1-4)GlcNAc(b1-6)]Man(a1-6)[Gal(b1-4)GlcNAc(b1-2)Man(a1-3)]Man(b1-4)GlcNAc(b1-4)GlcNAc
Summary of the method: as §1

[11] = target: Gal(b1-4)GlcNAc(b1-2)[Gal(b1-4)GlcNAc(b1-6)]Man(a1-6)[Gal(b1-4)GlcNAc(b1-2)Man(a1-3)]Man(b1-4)GlcNAc(b1-4)[Fuc(a1-6)]GlcNAc
Summary of the method: as §1

[12] = target: Gal(b1-4)GlcNAc(b1-2)[Gal(b1-4)GlcNAc(b1-6)]Man(a1-6)[GlcNAc(b1-4)][Gal(b1-4)GlcNAc(b1-2)Man(a1-3)]Man(b1-4)GlcNAc(b1-4)GlcNAc
Summary of the method: as §1

[13] = target: Gal(b1-4)GlcNAc(b1-2)[Gal(b1-4)GlcNAc(b1-6)]Man(a1-6)[GlcNAc(b1-4)][Gal(b1-4)GlcNAc(b1-2)[Gal(b1-4)GlcNAc(b1-4)]Man(a1-3)]Man(b1-4)GlcNAc(b1-4)[Fuc(a1-6)]GlcNAc
Summary of the method: as §1

[14] = target: Gal(b1-4)GlcNAc(b1-3)Gal(b1-3)GalNAc
Summary of the method: as §1

[15] = target: Gal(b1-4)GlcNAc(b1-3)Gal(b1-3)GlcNAc
Summary of the method: as §1

[16] = target: Gal(b1-4)GlcNAc(b1-3)Gal(b1-4)Glc
Summary of the method: as §1

[17] = target: Gal(b1-4)GlcNAc(b1-3)Gal(b1-4)GlcNAc
Summary of the method: as §1

[18] = target: Gal(b1-4)GlcNAc(b1-3)Gal(b1-4)GlcNAc(b1-2)Man(a1-3)[Gal(b1-4)GlcNAc(b1-3)Gal(b1-4)GlcNAc(b1-2)Man(a1-6)]Man(b1-4)GlcNAc(b1-4)GlcNAc
Summary of the method: as §1

[19] = target: Gal(b1-4)GlcNAc(b1-3)Gal(b1-4)GlcNAc(b1-2)Man(a1-3)[Gal(b1-4)GlcNAc(b1-3)Gal(b1-4)GlcNAc(b1-2)Man(a1-6)]Man(b1-4)GlcNAc(b1-4)[Fuc(a1-6)]GlcNAc
Summary of the method: as §1

[20] = target: Gal(b1-4)GlcNAc(b1-3)Gal(b1-4)GlcNAc(b1-2)[Gal(b1-4)GlcNAc(b1-3)Gal(b1-4)GlcNAc(b1-6)]Man(a1-6)[Gal(b1-4)GlcNAc(b1-3)Gal(b1-4)GlcNAc(b1-2)Man(a1-3)]Man(b1-4)GlcNAc(b1-4)GlcNAc
Summary of the method: as §1

[21] = target: Gal(b1-4)GlcNAc(b1-3)Gal(b1-4)GlcNAc(b1-2)[Gal(b1-4)GlcNAc(b1-3)Gal(b1-4)GlcNAc(b1-6)]Man(a1-6)[Gal(b1-4)GlcNAc(b1-3)Gal(b1-4)GlcNAc(b1-2)Man(a1-3)]Man(b1-4)GlcNAc(b1-4)[Fuc(a1-6)]GlcNAc
Summary of the method: as §1

[22] = target: Gal(b1-4)GlcNAc(b1-3)Gal(b1-4)GlcNAc(b1-3)Gal(b1-4)GlcNAc
Summary of the method: as §1

B1: Gal 7 (Homo sapiens) (protein)
chain: MSNVPHKSSLPEGIRPGTVLRIRGLVPPNASRFHVNLLCGEEGGSDAALHFNPRLDTSEVVFNSKEGGSWGREERGPGVPFGRGQPFEVLIIASDDGFKAVVGDAQYHHFRHRLPLARVRLVEVGGDVQLDSVRIF
glycan array binding signal (z-score) [1]: -0.132
glycan array binding signal (z-score) [2]: -0.212
glycan array binding signal (z-score) [3]: -0.289
glycan array binding signal (z-score) [4]: -0.318
glycan array binding signal (z-score) [5]: -0.286
glycan array binding signal (z-score) [6]: -0.115
glycan array binding signal (z-score) [7]: -0.177
glycan array binding signal (z-score) [8]: 0.026
glycan array binding signal (z-score) [9]: -0.127
glycan array binding signal (z-score) [10]: 0.052
glycan array binding signal (z-score) [11]: 0.141
glycan array binding signal (z-score) [12]: -0.186
glycan array binding signal (z-score) [13]: -0.258
glycan array binding signal (z-score) [14]: -0.259
glycan array binding signal (z-score) [15]: -0.06
glycan array binding signal (z-score) [16]: 0.958
glycan array binding signal (z-score) [17]: 0.739
glycan array binding signal (z-score) [18]: 2.23
glycan array binding signal (z-score) [19]: 3.36
glycan array binding signal (z-score) [20]: -0.215
glycan array binding signal (z-score) [21]: 4.27
glycan array binding signal (z-score) [22]: 0.945
